From ChEMBL document CHEMBL5606460, “ASAP - DENV-2 NS2B-NS3 protease fluorescence single point” (2024)
About 110 (5.5%) of roughly 2,000 compounds showed an effect of 50% or more. Some of the results follow.

Biological target: Genome polyprotein (dengue virus type 2) (UniProt P29990)
[1] = Thailand/16681/1984, Concentration 25.0 uM, Number of replicates 1.0

Compound `CCn1ccnc(NC[C@H](c2ccccc2)c2c[nH]c3ccccc23)c1=O` has an inhibition (Thailand/16681/1984, Concentration 49.5 uM, Number of replicates 2.0, Standard deviation 0.39000028877484233 %) of 0.466%, an inhibition (Thailand/16681/1984, Concentration 99.01 uM, Number of replicates 2.0, Standard deviation 0.5001349035049478 %) of 4.03% and an inhibition (Thailand/16681/1984, Concentration 198.0 uM, Number of replicates 2.0, Standard deviation 0.5006118372426971 %) of 7.21%.

In the case of `CC(C)Cn1cccc(C(=O)Nc2ccnc3ccccc23)c1=O`, the inhibition (Thailand/16681/1984, Concentration 49.5 uM, Number of replicates 2.0, Standard deviation 3.05520009762039 %) is reported as 20.5%, the inhibition (Thailand/16681/1984, Concentration 99.01 uM, Number of replicates 2.0, Standard deviation 21.78722513628885 %) is reported as 17% and the inhibition (Thailand/16681/1984, Concentration 198.0 uM, Number of replicates 2.0, Standard deviation 20.398741213407295 %) is reported as 7.74%.

`O=Cc1ccc(N2CCC(C(=O)NCc3ccc(Cl)c(C(F)(F)F)c3)CC2)cc1` was tested, and the inhibition [1] was 12.4%.

In the case of `CC(C)(CO)NC(=O)c1cc(Cl)cc(NC(=O)c2cc(-c3ccc(Cl)cc3)n[nH]2)c1`, the inhibition (Thailand/16681/1984, Concentration 49.5 uM, Number of replicates 2.0, Standard deviation 0.12694171370832513 %) is reported as 1.06%, the inhibition (Thailand/16681/1984, Concentration 99.01 uM, Number of replicates 2.0, Standard deviation 0.3683389265193805 %) is reported as 1.45% and the inhibition (Thailand/16681/1984, Concentration 198.0 uM, Number of replicates 2.0, Standard deviation 0.21850629000727306 %) is reported as 2.52%.

Work on `COCCCN1CCC(NC(=O)C2CCN(c3ccc(C=O)cc3)CC2)CC1` yielded an inhibition [1] of 16.3%.

Work on `Nc1ccc(Br)c2ncccc12` yielded an inhibition (Thailand/16681/1984, Concentration 49.95 uM, Number of replicates 2.0, Standard deviation 5.94009658152584 %) of -1.62% and an inhibition (Thailand/16681/1984, Concentration 99.9 uM, Number of replicates 2.0, Standard deviation 5.75336311473699 %) of 1.34%.

`CSCC[C@H](NC(=O)OC(C)(C)C)C(=O)N1CCC[C@H]1C(=O)NCc1ccncc1` was tested, and the inhibition (Thailand/16681/1984, Concentration 49.5 uM, Number of replicates 2.0, Standard deviation 3.0161954863268012 %) was -1.64%, the inhibition (Thailand/16681/1984, Concentration 99.01 uM, Number of replicates 2.0, Standard deviation 3.9521494343167394 %) was -1.16% and the inhibition (Thailand/16681/1984, Concentration 198.0 uM, Number of replicates 2.0, Standard deviation 3.4421447504149048 %) was -1.03%.

`Cc1cc(CO)c2cccc(NC(=O)c3cnn(Cc4c(C)noc4C)c3)c2n1` showed an inhibition (Thailand/16681/1984, Concentration 49.95 uM, Number of replicates 2.0, Standard deviation 0.8661234688702698 %) of 4.01% and an inhibition (Thailand/16681/1984, Concentration 99.9 uM, Number of replicates 2.0, Standard deviation 1.205952159714456 %) of 8.22%.

With `COc1cc(CS(=O)(=O)[C@H]2CCOC2)nc(N2CCNCC2)n1` the inhibition (Thailand/16681/1984, Concentration 49.5 uM, Number of replicates 2.0, Standard deviation 1.1070979066439124 %) was -1.03%, the inhibition (Thailand/16681/1984, Concentration 99.01 uM, Number of replicates 2.0, Standard deviation 1.1346713232438308 %) was -1.02% and the inhibition (Thailand/16681/1984, Concentration 198.0 uM, Number of replicates 2.0, Standard deviation 0.23411375269961499 %) was -0.488%.

Compound `CC1(C)CCC(CN2CCN(C(=O)C3CCN(c4ccc(C=O)cc4)CC3)CC2)=C(c2ccc(Cl)cc2)C1` has an inhibition [1] of 14.6%.

With `CS(=O)(=O)N1CCC(C(=O)Nc2nc3c(F)cccc3s2)CC1` the inhibition (Thailand/16681/1984, Concentration 49.5 uM, Number of replicates 2.0, Standard deviation 0.96531236791799 %) was 0.796%, the inhibition (Thailand/16681/1984, Concentration 99.01 uM, Number of replicates 2.0, Standard deviation 0.9471689504241718 %) was 0.997% and the inhibition (Thailand/16681/1984, Concentration 198.0 uM, Number of replicates 2.0, Standard deviation 0.2746253667085591 %) was 0.83%.

For `CC(C)(CO)NC(=O)c1cc(Cl)cc(NC(=O)c2cncc(N3CCOCC3)c2)c1`, the inhibition (Thailand/16681/1984, Concentration 49.5 uM, Number of replicates 2.0, Standard deviation 0.4474173856773207 %) was -0.376%, the inhibition (Thailand/16681/1984, Concentration 99.01 uM, Number of replicates 2.0, Standard deviation 1.505611595400152 %) was 1.35% and the inhibition (Thailand/16681/1984, Concentration 198.0 uM, Number of replicates 2.0, Standard deviation 2.954515575506412 %) was 3.92%.

`Cc1cc(CO)c2cccc(NC(=O)c3cc(C(=O)O)[nH]n3)c2n1` gave an inhibition (Thailand/16681/1984, Concentration 49.95 uM, Number of replicates 2.0, Standard deviation 1.2262200734011628 %) of 6.16% and an inhibition (Thailand/16681/1984, Concentration 99.9 uM, Number of replicates 2.0, Standard deviation 1.3755281502367038 %) of 12.6%.

`Cc1cc(CO)c2cccc(Cc3cccc(C(=O)N4CCO[C@@H](CN)C4)c3)c2n1` gave an inhibition (Thailand/16681/1984, Concentration 49.95 uM, Number of replicates 2.0, Standard deviation 1.226020128751827 %) of -8% and an inhibition (Thailand/16681/1984, Concentration 99.9 uM, Number of replicates 2.0, Standard deviation 0.7100280635505346 %) of 4.81%.

Compound `C[C@H]1COCCN1C(=O)c1cc(Cl)ccc1NS(=O)(=O)c1ccc(Oc2ccccc2Cl)cc1` has an inhibition (Thailand/16681/1984, Concentration 49.5 uM, Number of replicates 2.0, Standard deviation 1.11087224122176 %) of 42.6%, an inhibition (Thailand/16681/1984, Concentration 99.01 uM, Number of replicates 2.0, Standard deviation 0.41977451897359047 %) of 79.8% and an inhibition (Thailand/16681/1984, Concentration 198.0 uM, Number of replicates 2.0, Standard deviation 0.050716482924917095 %) of 92.9%.

Work on `O=Cc1ccc(N2CCC(C(=O)N(Cc3ccccc3)[C@@H](CO)c3ccccc3)CC2)cc1` yielded an inhibition [1] of 14.2%.

With `Nc1ccnc2c(OC(F)(F)F)cccc12` the inhibition (Thailand/16681/1984, Concentration 49.95 uM, Number of replicates 2.0, Standard deviation 5.899788515721779 %) was -6.29% and the inhibition (Thailand/16681/1984, Concentration 99.9 uM, Number of replicates 2.0, Standard deviation 6.266674134610807 %) was -5.78%.

`O=Cc1ccc(N2CCC(C(=O)N[C@H]3CCc4ccccc4NC3=O)CC2)cc1` was tested, and the inhibition [1] was 15.2%.

Compound `COc1cc(COc2ccccc2CO)nc(N2CCNCC2)n1` has an inhibition (Thailand/16681/1984, Concentration 49.5 uM, Number of replicates 2.0, Standard deviation 20.33636893523299 %) of 3.51%, an inhibition (Thailand/16681/1984, Concentration 99.01 uM, Number of replicates 2.0, Standard deviation 0.5398033487360073 %) of -7.68% and an inhibition (Thailand/16681/1984, Concentration 198.0 uM, Number of replicates 2.0, Standard deviation 3.401504567444578 %) of -5.09%.

For `c1ccc2c(CN3CCC(c4c[nH]c5cccnc45)CC3)n[nH]c2c1`, the inhibition (Thailand/16681/1984, Concentration 49.5 uM, Number of replicates 2.0, Standard deviation 0.8795107409501791 %) was 2.18%, the inhibition (Thailand/16681/1984, Concentration 99.01 uM, Number of replicates 2.0, Standard deviation 0.8626664157680123 %) was 3.05% and the inhibition (Thailand/16681/1984, Concentration 198.0 uM, Number of replicates 2.0, Standard deviation 1.2603111418750788 %) was 5.34%.

For `O=Cc1ccc(N2CCC(C(=O)N3CCN(Cc4cccc5ccccc45)CC3)CC2)cc1`, the inhibition [1] was 10.2%.
